# Experimental data published in the GPR68 mutational scans of Howard et al. (2025).
# The least precise scores are not listed. The source holds two more conditions with little spread; they are left out. Read del as a deletion of the residues named and ins as an insertion between two positions. For some of these results: The concentration of ogerin is not given here.
# B1: GPR68, Q15743 (parent)
# chain: MGNITADNSSMSCTIDHTIHQTLAPVVYVTVLVVGFPANCLSLYFGYLQIKARNELGVYLCNLTVADLFYICSLPFWLQYVLQHDNWSHGDLSCQVCGILLYENIYISVGFLCCISVDRYLAVAHPFRFHQFRTLKAAVGVSVVIWAKELLTSIYFLMHEEVIEDENQHRVCFEHYPIQAWQRAINYYRFLVGFLFPICLLLASYQGILRAVRRSHGTQKSRKDQIQRLVLSTVVIFLACFLPYHVLLLVRSVWEASCDFAKGVFNAYHFSLLLTSFNCVADPVLYCFVSETTHRDLARLRGACLAFLTCSRTGRAREAYPLGAPEASGKSGAQGEEPELLTKLHPAFQTPNSPGSGGFPTGRLA
# Columns and labels:
# [1] = variants of: B1; assay: cAMP reporter score (Enrich2 score, wild type = 0); higher = more signal; HEK293T, FACS bins
# [2] = variants of: B1; assay: surface expression score (Enrich2 score, wild type = 0); higher = more signal; HEK293T, FACS bins
Variant,cAMP reporter score ([1]; pH 5.5),cAMP reporter score ([1]; pH 6),"cAMP reporter score ([1]; pH 6, modulator: ogerin)","cAMP reporter score ([1]; pH 6.5, modulator: ogerin)",surface expression score [2]
I185Y,-0.839,-1.02,-1.39,-1.66,-0.335
I185_N186del,-0.588,–,-0.263,-2.2,-2.02
I185_N186insGSG,-0.41,-0.567,-0.924,-1.36,-3.14
I185_Y187del,-1.49,-1.32,-1.28,-1.32,-2.33
I185del,-1.17,-0.023,-0.983,-0.629,-2.6
N186_Y187insG,-0.402,-1.61,-0.89,-0.815,–
N186_Y187insGS,-1.63,-0.408,-1.45,-1.38,-1.52
Y187_Y188insGS,-1.3,-0.664,-1.62,-1.11,-2.13
Y187del,-0.92,-0.06,-1.22,-0.93,-2.22
Y188A,1.12,1.58,-0.099,-0.61,–
Y188C,-0.463,0.56,-0.805,-0.355,-0.805
Y188E,0.104,–,-0.054,4.68,-0.397
Y188F,-0.496,1.08,-0.643,-0.587,-0.48
Y188G,0.46,1.18,-0.622,-1.1,-1.78
Y188H,1.33,4.66,0.695,-0.558,-1.58
Y188I,-0.037,–,-0.05,-0.724,–
Y188L,1.29,–,–,-1.92,-1.6
Y188M,1.7,3.41,1.66,0.46,-1.55
Y188N,-0.485,-0.477,0.317,-2.85,-0.798
Y188P,-1.2,-1.51,–,-1.7,-1.88
Y188Q,-0.822,-0.605,–,0.64,–
Y188R,0.538,–,–,-0.853,-2.24

Variant,cAMP reporter score ([1]; pH 5.5),cAMP reporter score ([1]; pH 6),"cAMP reporter score ([1]; pH 6, modulator: ogerin)","cAMP reporter score ([1]; pH 6.5, modulator: ogerin)",surface expression score [2]
Y188S,-0.971,0.887,-0.43,0.271,-1.83
Y188T,-0.48,0.815,-0.653,-0.371,-0.288
Y188V,0.173,–,-0.228,-1.34,-2.2
Y188W,0.307,2.98,0.168,-0.417,–
Y188_R189del,-1.31,-1.36,-3.36,-2.04,-1.86
Y188_R189insG,-1.89,-1.35,–,–,-3.39
Y188_R189insGS,-1.28,-1.44,-1.35,-1.4,-2.41
Y188_R189insGSG,-1.46,-1.54,-0.875,-1.51,–
R189_F190insG,-1.42,-0.391,–,-1.95,-3.16
F190_L191insGSG,-1.08,-1.61,-1.82,-1.41,-1.97
F190_V192del,-2.1,-0.981,-0.658,-1.85,–
L191A,1.6,1.25,1.87,1.16,1.68
L191D,-1.22,-1.34,-1.39,–,–
L191E,-0.993,–,-3.37,-0.938,-2.02
L191F,-0.631,0.147,-0.346,-0.683,-0.337
L191G,0.656,-0.213,0.948,0.313,0.47
L191H,0.042,-0.274,-0.229,-0.699,-0.85
L191I,0.723,-0.227,1.22,0.466,1.11
L191K,-2.06,-1.39,-1.78,-1.57,-2.23
L191M,0.525,-0.324,0.771,0.604,0.338
L191N,-0.062,-1.76,-0.377,-0.927,-0.413
L191P,0.044,-0.415,-0.22,-2.09,-0.422

Variant,cAMP reporter score ([1]; pH 5.5),cAMP reporter score ([1]; pH 6),"cAMP reporter score ([1]; pH 6, modulator: ogerin)","cAMP reporter score ([1]; pH 6.5, modulator: ogerin)",surface expression score [2]
L191Q,-0.487,-0.631,-1.43,-0.585,–
L191R,-2.42,-1.09,-1.72,-1.11,-2.76
L191S,-0.708,-1.14,-0.465,-0.333,-0.635
L191T,0.311,-0.507,-0.118,1.08,0.442
L191V,0.961,0.446,0.204,1.06,0.859
L191W,0.903,-0.278,0.142,-0.527,-0.108
L191Y,0.531,-0.6,0.866,-0.57,-0.307
L191_G193del,-1.06,-0.924,-2.31,-0.266,-2.94
L191_V192insG,-1.42,-2.17,-2.13,-1.75,-2.92
L191_V192insGS,-1.92,-1.82,-1.88,-1.56,-2.79
V192_G193insGS,-1.56,–,-2.59,-0.216,-1.95
G193_F194insG,-1.94,0.05,-0.645,-1.14,-2.93
G193del,-0.291,1.33,-2.86,-1.07,-2.15
F194_L195del,-1.66,-0.6,-1.08,-0.552,-1.73
F194_L195insGSG,-0.668,-0.79,-1.32,-0.923,-2.18
L195A,0.139,–,-0.773,–,-0.872
L195C,0.538,-0.189,1.2,1.46,0.379
L195D,-1.1,-1.95,–,-0.436,-2.66
L195E,-1.38,–,–,-0.664,-3.48
L195F,1.06,-0.551,0.447,-0.131,-0.002
L195G,0.305,0.008,1.28,0.014,-0.452
